According to patent US12006294B2, “Therapeutic compounds” (REGENTS OF THE UNIVERSITY OF MINNESOTA, priority 2017, dated 2024):
At least one read-out could not be matched to a standard name with certainty.

Test system: mice
Assay: Tail flick assay (analgesic potency)
Format: in vivo
Details: 2 mg/kg subcutaneous

| SMILES | Tail flick latency % MPE, Mean (15 min) | Tail flick latency % MPE, Mean (30 min) | Tail flick latency % MPE, Mean (45 min) | Tail flick latency % MPE, Mean (60 min) | Tail flick latency % MPE, Mean (75 min) | Tail flick latency % MPE, Mean (90 min) | Tail flick latency % MPE, Mean (105 min) | Tail flick latency % MPE, Mean (120 min) | Tail flick latency % MPE, Mean (135 min) | Tail flick latency % MPE, Mean (150 min) |
| --- | --- | --- | --- | --- | --- | --- | --- | --- | --- | --- |
| N=C(N)N/N=C/c1c(Cl)cccc1Cl [BC1-45-1, guanabenz, acetate] | 52.6 % MPE | 55.8 % MPE | 92.7 % MPE | 90.5 % MPE |  |  |  |  |  |  |
| Cc1cccc(Cl)c1/C=N/NC(=N)N [BC1-272-1, (E)-2-(2-chloro-6-methylbenzylidene)hydrazinecarboximidamide acetate] | 76.7 % MPE | 85.6 % MPE | 96.2 % MPE | 97.4 % MPE |  |  |  |  |  |  |
| Cc1cccc(C)c1/C=N/NC(=N)N [BC2-27-1, (E)-2-(2,6-dimethylbenzylidene)hydrazinecarboximidamide acetate] | 34.8 % MPE | 63.3 % MPE | 83.3 % MPE | 82.3 % MPE |  |  |  |  |  |  |
| N=C(N)N/N=C/c1c(Cl)cccc1Br [BC2-35-1, (E)-2-(2-bromo-6-chlorobenzylidene)hydrazinecarboximidamide acetate] | 89.5 % MPE | 91.7 % MPE | 92.3 % MPE | 91.5 % MPE |  |  |  |  |  |  |
| N=C(N)N/N=C/c1c(Br)cccc1Br [BC2-47-1, (E)-2-(2,6-dibromobenzylidene)hydrazinecarboximidamide acetate] | 80.1 % MPE | 92.5 % MPE | 100.0 % MPE | 100.0 % MPE |  |  |  |  |  |  |
| N=C(N)N/N=C/c1c(Cl)cccc1[N+](=O)[O-] [BC2-57-1, (E)-2-(2-chloro-6-nitrobenzylidene)hydrazinecarboximidamide acetate] | 82.8 % MPE | 80.2 % MPE | 94.5 % MPE | 85.2 % MPE |  |  |  |  |  |  |
| N=C(N)N/N=C/c1c(Br)cccc1[N+](=O)[O-] [JM1-175-2, (E)-2-(2-bromo-6-nitrobenzylidene)hydrazine-1-carboximidamide acetate] | 26.7 % MPE | 45.0 % MPE | 55.1 % MPE | 58.1 % MPE | 39.9 % MPE | 30.8 % MPE |  |  |  |  |
| N=C(N)N/N=C/c1c(F)cccc1F [JM1-191-2, (E)-2-(2,6-difluorobenzylidene)hydrazine-1-carboximidamide acetate] | 5.5 % MPE | 7.8 % MPE | 8.1 % MPE | 2.5 % MPE |  |  |  |  |  |  |
| Cc1cccc(F)c1/C=N/NC(=N)N [JM1-195-2, (E)-2-(2-fluoro-6-methylbenzylidene)hydrazine-1-carboximidamide acetate] | 5.0 % MPE | 14.9 % MPE | 16.8 % MPE | 17.6 % MPE |  |  |  |  |  |  |
| Cl.Clc1cccc(Cl)c1/C=N/NC1=NCCN1 [JM2-83-2, (E)-2-(2-(2,6-dichlorobenzylidene)hydrazinyl)-4,5-dihydro-1H-imidazole hydrochloride] | 15.1 % MPE | 13.5 % MPE | 16.6 % MPE | 32.5 % MPE | 37.8 % MPE | 37.2 % MPE | 27.9 % MPE | 49.8 % MPE | 45.8 % MPE | 47.7 % MPE |
| Brc1cccc(Br)c1/C=N/NC1=NCCN1.Cl [JM2-111-2, (E)-2-(2-(2,6-dibromobenzylidene)hydrazinyl)-4,5-dihydro-1H-imidazole hydrochloride] | 6.8 % MPE | 11.5 % MPE | 6.7 % MPE | 1.2 % MPE |  |  |  |  |  |  |
| CNC(=N)N/N=C/c1c(Cl)cccc1Cl [JM2-171-2, (E)-2-(2,6-dichlorobenzylidene)-N-methylhydrazine-1-carboximidamide hydroiodide] | 34.8 % MPE | 72.1 % MPE | 79.7 % MPE | 94.8 % MPE |  |  |  |  |  |  |
| N=C(N/N=C/c1c(Cl)cccc1Cl)Nc1ccccc1 [JM2-175-2, (E)-2-(2,6-dichlorobenzylidene)-N-phenylhydrazine-1-carboximidamide hydroiodide] | 3.2 % MPE | 11.1 % MPE | 4.7 % MPE | 5.7 % MPE |  |  |  |  |  |  |
